Measurements reported in a collection of fitness landscapes (doi:10.1038/s41467-024-54723-y).
In all, about 18,000 sequences were measured (“TetR repression strength (sort-seq, GFP reporter)”: median about 0.23, highest 2% from about 0.68 on). The list shows a part of the results.

molecular target: TetR (class B, Tn10) (UniProt P04483); assay: TetR repression strength (sort-seq, GFP reporter) (relative to tetO2 = 1); higher = stronger repression; details: E. coli
Method in brief: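 Repression strength is the top bin index plus one minus the read-weighted mean bin, relative to the unaltered operator's value. A low-copy library in E. coli SIG10-MAX randomized eight operator positions between a constitutive promoter and sfGFP, with TetR expressed constitutively; cells grew 5 h at 37 °C in LB with 50 µg/mL chloramphenicol and 10^6 were FACS-sorted into 13 bins that were each Illumina-sequenced. Three independent transformations were averaged, keeping only members with ≥30 reads in all replicates and CV ≤0.5.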

Sequence of UniProt P04483 (P04483 whole entry): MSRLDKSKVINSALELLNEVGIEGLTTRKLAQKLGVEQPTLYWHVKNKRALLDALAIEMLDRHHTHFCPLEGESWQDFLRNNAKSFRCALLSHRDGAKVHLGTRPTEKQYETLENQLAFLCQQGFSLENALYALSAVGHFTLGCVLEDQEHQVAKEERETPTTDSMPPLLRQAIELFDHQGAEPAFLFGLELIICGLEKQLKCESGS

Sequence | TetR repression strength
TCCCTAGTAGTAGTTGAGA | 0.434
TCCCATAGAGTAGGTGAGA | 0.0226
TCCCTGCAAGTGCCTGAGA | 0.195
TCCCAAGAAGTTAGAGAGA | 0.3
TCCCTGTTAGTTGGAGAGA | 0.118
TCCCGTGGAGTTTGCGAGA | 0.202
TCCCGGGTAGTAATGGAGA | 0.247
TCCCTTCGAGTGTGCGAGA | 0.209
TCCCGATAAGTGCTGGAGA | 0.332
TCCCTGGTAGTGCCAGAGA | 0.474
TCCCGGGAAGTACGTGAGA | 0.102
TCCCAAGTAGTTTAAGAGA | 0.375
TCCCGATAAGTGGTAGAGA | 0.344
TCCCTAGTAGTCGCGGAGA | 0.388
TCCCCGGGAGTACAGGAGA | 0.353
TCCCGGCCAGTTGGGGAGA | 0.254
TCCCGAGCAGTTTGTGAGA | 0.104
TCCCAGTTAGTTGGGGAGA | 0.303
TCCCACATAGTCACAGAGA | 0.496
TCCCTGGAAGTTACGGAGA | 0.316
TCCCGGCAAGTGCTTGAGA | 0.155
TCCCGCGGAGTTTAGGAGA | 0.232
TCCCGATAAGTGTGCGAGA | 0.247
TCCCTCGGAGTGTCGGAGA | 0.127
TCCCGCATAGTATAGGAGA | 0.0705
TCCCAGCAAGTCTTAGAGA | 0.17

Sequence | TetR repression strength
TCCCTTGGAGTTGTGGAGA | 0.245
TCCCTGGTAGTGAGGGAGA | 0.148
TCCCTAAAAGTTGTCGAGA | 0.289
TCCCAAAGAGTGGAGGAGA | 0.388
TCCCATTTAGTGGGAGAGA | 0.207
TCCCTCGTAGTCGAAGAGA | 0.629
TCCCAGATAGTACGGGAGA | 0.0773
TCCCACAAAGTGCAGGAGA | 0.125
TCCCGGTTAGTGATTGAGA | 0.508
TCCCTCACAGTAACCGAGA | 0.376
TCCCTAGGAGTAGGAGAGA | 0.268
TCCCACCGAGTCAGGGAGA | 0.346
TCCCGAGGAGTTATAGAGA | 0.326
TCCCAGCGAGTCTACGAGA | 0.207
TCCCGACTAGTCTGCGAGA | 0.232
TCCCGTCCAGTGGACGAGA | 0.16
TCCCATGCAGTTTAGGAGA | 0.0346
TCCCATGGAGTAGTGGAGA | 0.264
TCCCAGCAAGTGTGGGAGA | 0.0792
TCCCGAGCAGTACTGGAGA | 0.248
TCCCTGCTAGTGGTCGAGA | 0.271
TCCCGACGAGTGGCTGAGA | 0.387
TCCCTTCGAGTTACTGAGA | 0.464
TCCCAGATAGTGTGGGAGA | 0.43
TCCCGTCAAGTACGTGAGA | 0.182
TCCCTGTCAGTGACAGAGA | 0.636

Sequence | TetR repression strength
TCCCCCTGAGTGGGAGAGA | 0.0912
TCCCCAAGAGTAGGAGAGA | 0.149
TCCCTGCCAGTCCGGGAGA | 0.166
TCCCAGAGAGTGACTGAGA | 0.12
TCCCCCTTAGTAGTTGAGA | 0.0838
TCCCGCAGAGTAGCTGAGA | 0.265
TCCCCTAGAGTTTGGGAGA | 0.36
TCCCGGCGAGTTGGAGAGA | 0.242
TCCCCAATAGTAGTCGAGA | 0.459
TCCCGAATAGTGTGTGAGA | 0.4
TCCCTAGAAGTGGATGAGA | 0.203
TCCCCCTTAGTCGCTGAGA | 0.253
TCCCTTTGAGTATCGGAGA | 0.283
TCCCGACGAGTGAGTGAGA | 0.599
TCCCGGGAAGTTGCGGAGA | 0.254
TCCCTGCAAGTGGCAGAGA | 0.0298
TCCCCAATAGTGCGTGAGA | 0.118
TCCCGTGAAGTACTGGAGA | 0.311
TCCCCGTCAGTAAAGGAGA | 0.402
TCCCATGTAGTATAAGAGA | 0.203
TCCCGACCAGTATCGGAGA | 0.0957
TCCCTCGTAGTAAAGGAGA | 0.13
TCCCTAGCAGTCCGTGAGA | 0.132
TCCCGGGCAGTGGGTGAGA | 0.275
TCCCTTGAAGTCATTGAGA | 1.05
TCCCGTGAAGTAGGCGAGA | 0.0942

Sequence | TetR repression strength
TCCCTCTGAGTGGAGGAGA | 0.186
TCCCGTTGAGTCAGTGAGA | 0.493
TCCCATGTAGTGTATGAGA | 0.112
TCCCTGATAGTCTTCGAGA | 0.299
TCCCGTGAAGTCGCTGAGA | 0.168
TCCCAGTGAGTATGCGAGA | 0.263
TCCCCTTAAGTCTCCGAGA | 0.236
TCCCGTAAAGTTCGAGAGA | 0.207
TCCCGCTGAGTATAGGAGA | 0.0823
TCCCGGAGAGTGCTAGAGA | 0.162
TCCCCCGGAGTACGTGAGA | 0.187
TCCCAATTAGTGTGGGAGA | 0.0215
TCCCAAGTAGTAGGGGAGA | 0.322
TCCCAAAGAGTAAACGAGA | 0.184
TCCCGCGGAGTCCGAGAGA | 0.202
TCCCTTTAAGTGAGCGAGA | 0.0365
TCCCTTCAAGTTGAGGAGA | 0.0988
TCCCCGTAAGTCGGCGAGA | 0.134
TCCCTAGCAGTTAGTGAGA | 0.301
TCCCCAGGAGTGTTAGAGA | 0.285
TCCCCCCGAGTTCCGGAGA | 0.295
TCCCAGAGAGTAACAGAGA | 0.251
TCCCCAACAGTAGCGGAGA | 0.445
TCCCAGGCAGTCGTTGAGA | 0.196
TCCCGCTTAGTCCGTGAGA | 0.183
TCCCGTCAAGTGGCCGAGA | 0.152

Sequence | TetR repression strength
TCCCGATGAGTGGCGGAGA | 0.117
TCCCTCTGAGTATTAGAGA | 0.502
TCCCCTATAGTCCAGGAGA | 0.28
TCCCAGCAAGTAACTGAGA | 0.213
TCCCAAGAAGTCAAGGAGA | 0.393
TCCCAGAGAGTGGGTGAGA | 0.182
TCCCCTACAGTGCGTGAGA | 0.373
TCCCGTGCAGTTCGTGAGA | 0.287
TCCCGGTTAGTTAGCGAGA | 0.363
TCCCAAACAGTAGTGGAGA | 0.158
TCCCGAGTAGTGTTGGAGA | 0.254
TCCCGTGGAGTCGCAGAGA | 0.164
TCCCCTCCAGTCTTGGAGA | 0.321
TCCCTGGTAGTACGAGAGA | 0.219
TCCCTATGAGTGTGTGAGA | 0.207
TCCCCTTGAGTGTCTGAGA | 0.25
TCCCATAGAGTTGTCGAGA | 0.2
TCCCCCTCAGTGGATGAGA | 0.124
TCCCTGGGAGTTATAGAGA | 0.354
TCCCGTCAAGTATATGAGA | 0.301
TCCCAAGGAGTATGGGAGA | 0.138
TCCCAGTGAGTGGATGAGA | 0.151
TCCCTGGGAGTAGAGGAGA | 0.303
TCCCATTGAGTTCCGGAGA | 0.115
TCCCCCTGAGTGAGCGAGA | 0.228
TCCCCGGGAGTATCAGAGA | 0.332

Sequence | TetR repression strength
TCCCGTTTAGTTAGCGAGA | 0.155
TCCCAGGGAGTAGGAGAGA | 0.147
TCCCAGGCAGTCGAGGAGA | 0.148
TCCCTTAAAGTTTCTGAGA | 0.287
TCCCATCTAGTGCTGGAGA | 0.319
TCCCGTATAGTGGGGGAGA | 0.0618
TCCCGCAGAGTGCTAGAGA | 0.299
TCCCATGTAGTCCTGGAGA | 0.341
TCCCTTGTAGTCTTGGAGA | 0.287
TCCCTGACAGTAAGAGAGA | 0.175
TCCCAGAGAGTCAGTGAGA | 0.518
TCCCCAGCAGTATTGGAGA | 0.178
TCCCTAGTAGTGGAAGAGA | 0.181
TCCCGTGCAGTAGGCGAGA | 0.151
TCCCGGCTAGTAATGGAGA | 0.484
TCCCTGCAAGTGGTTGAGA | 0.279
TCCCCAAGAGTTTGGGAGA | 0.217
TCCCTGACAGTGGCGGAGA | 0.306
TCCCGGCGAGTGCACGAGA | 0.0839
TCCCGGTTAGTGCGCGAGA | 0.254
TCCCGTAAAGTATCAGAGA | 0.231
TCCCAGCAAGTGAGGGAGA | 0.218
TCCCGCCTAGTACGAGAGA | 0.306
TCCCGTACAGTGGCGGAGA | 0.0736
TCCCTTGGAGTAGAGGAGA | 0.118
TCCCAGAGAGTTGTTGAGA | 0.202

Sequence | TetR repression strength
TCCCGCGGAGTTAGCGAGA | 0.198
TCCCCTCCAGTAAGTGAGA | 0.0276
TCCCATACAGTGTAGGAGA | 0.168
TCCCCGATAGTTATCGAGA | 0.189
TCCCCGCAAGTGGGGGAGA | 0.218
TCCCGAAAAGTGAAAGAGA | 0.36
TCCCAGCAAGTGAAGGAGA | 0.0241
TCCCCCTCAGTGAAAGAGA | 0.311
TCCCGTTGAGTCATCGAGA | 0.204
TCCCCCGGAGTGGTGGAGA | 0.148
TCCCCACTAGTCCAAGAGA | 0.482
TCCCGGGCAGTATGTGAGA | 0.0784
TCCCAGTTAGTTCATGAGA | 0.12
TCCCGGTTAGTGGTCGAGA | 0.0681
TCCCGTACAGTCTTCGAGA | 0.207
TCCCTCATAGTGCTGGAGA | 0.466
TCCCTTTCAGTGTTGGAGA | 0.276
TCCCTGTTAGTGGTTGAGA | 0.322
TCCCCATGAGTGGCGGAGA | 0.181
TCCCAGCCAGTTGGGGAGA | 0.174
TCCCAGACAGTTGTCGAGA | 0.254
TCCCAGCGAGTCAAAGAGA | 0.215
TCCCATACAGTGCGCGAGA | 0.394
TCCCGACGAGTATCAGAGA | 0.356
TCCCTAAGAGTTGGTGAGA | 0.137
TCCCGCTCAGTAGTAGAGA | 0.245

Sequence | TetR repression strength
TCCCAGGCAGTTCCCGAGA | 0.435
TCCCCGTAAGTCAGCGAGA | 0.146
TCCCGAGTAGTGTAAGAGA | 0.672
TCCCGTTTAGTGTCTGAGA | 0.329
TCCCTATTAGTCCGCGAGA | 0.312
TCCCATTGAGTGGTGGAGA | 0.122
TCCCAGTGAGTAAGAGAGA | 0.258
TCCCGGACAGTACGTGAGA | 0.231
TCCCGTCCAGTTCTCGAGA | 0.00142
TCCCATCGAGTCTGAGAGA | 0.218
TCCCGCGTAGTGCTAGAGA | 0.152
TCCCCGGGAGTTAGTGAGA | 0.121
TCCCTCTGAGTCAGGGAGA | 0.521
TCCCTTTGAGTCCAGGAGA | 0.207
TCCCAGCGAGTGGATGAGA | 0.354
TCCCCTTCAGTTATCGAGA | 0.413
TCCCCGCAAGTAGTGGAGA | 0.292
TCCCACAAAGTCATTGAGA | 0.33
TCCCTAGGAGTGGAAGAGA | 0.129
TCCCCGGCAGTCCCAGAGA | 0.242
TCCCGGCAAGTAGGGGAGA | 0.287
TCCCACGCAGTAGGTGAGA | 0.138
